The results in this text go back to the supplement of paper PMC9446081.

Molecules are shown by their SMILES. Hit rate of the full screen: of about 39,000 compounds, about 220 (0.56%) showed activity. Some of the results follow.
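Also: static incubation at 37 °C against the wild-type strain, values averaged over two biological replicates.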

This test relates to Escherichia coli K-12 BW25113. The experiment in a line: relative growth (OD600 normalised to plate interquartile mean) (fraction); higher = less growth inhibition, active = 0.2 or less. Particulars: 50 µM; LB; incubation time: overnight (16-24 h).
Consider `C[C@H]1CN([C@@H](C)CO)C(=O)c2cc(NC(=O)CCCN(C)C)ccc2O[C@@H]1CN(C)S(=O)(=O)c1ccccc1`, for which the relative growth was inactive: 0.979. In the case of `C[C@H]1CN([C@@H](C)CO)C(=O)c2ccccc2-c2ccccc2CO[C@H]1CN(C)C(=O)Nc1ccc(-c2ccccc2)cc1`, the relative growth was inactive: 1.04.

On to `CN(C)C(=O)C[C@@H]1CC[C@@H](NC(=O)C2CC2)[C@@H](CO)O1`, for which the relative growth is inactive: 0.992.

As to `C[C@@H]1CN([C@H](C)CO)C(=O)Cc2cc(NS(=O)(=O)c3ccc(F)cc3)ccc2O[C@H]1CN(C)Cc1ccc(Oc2ccccc2)cc1`, the relative growth was inactive: 0.988. On to `COc1ccc(NC(=O)Nc2ccc3c(c2)C(=O)N([C@H](C)CO)C[C@@H](C)[C@H](CN(C)Cc2ccccc2)OCCCC[C@@H](C)O3)cc1`, for which the relative growth was inactive: 0.983.

`C[C@@H]1CN([C@@H](C)CO)C(=O)c2cccc(NC(=O)c3ccc(-c4nccs4)cc3)c2O[C@H]1CN(C)Cc1ccc(C(=O)O)cc1`: the relative growth is inactive: 1. On to `CO[C@H](C(=O)[C@@H](O)[C@@H](C)O)[C@@H]1Cc2cc3cc(O[C@H]4C[C@@H](O[C@H]5C[C@@H](O)[C@H](O)[C@@H](C)O5)[C@@H](O)[C@@H](C)O4)c(C)c(O)c3c(O)c2C(=O)[C@H]1O[C@H]1C[C@@H](O[C@H]2C[C@@H](O[C@H]3C[C@](C)(O)[C@H](O)[C@@H](C)O3)[C@H](O)[C@@H](C)O2)[C@H](O)[C@@H](C)O1`, for which the relative growth is inactive: 1.02. As for `O=C(CCCCCCC(=O)Nc1cccc(C(=O)NCCOCCOCCNC(=O)c2cccc(NC(=O)CCCCCCC(=O)NO)c2)c1)NO`, the relative growth is inactive: 1.02. Then `O=C(O)c1cc(=O)[nH]c(=O)[nH]1`, with inactive: 1.01; and `O=C(NCC1CC1)[C@H]1[C@H](CO)[C@H]2Cn3c(cccc3=O)[C@@H]1N2C(=O)c1cccnc1`, with inactive: 0.975; and `COc1ccc(S(=O)(=O)Nc2ccc3c(c2)CC(=O)N([C@@H](C)CO)C[C@@H](C)[C@H](CN(C)Cc2ccc(C(=O)O)cc2)O3)cc1`, with inactive: 1.01. `C[C@H](CO)N1C[C@H](C)[C@H](CN(C)Cc2ccc(Oc3ccccc3)cc2)Oc2ccc(NC(=O)Nc3ccc4c(c3)OCO4)cc2C1=O`: the relative growth is inactive: 1.04. Then `C/C=C/c1ccc2c(c1)O[C@H](CN(C)S(=O)(=O)c1ccc(F)cc1)[C@H](C)CN([C@H](C)CO)S2(=O)=O`, with inactive: 0.998. With `O=C(C[C@H]1CC[C@@H]2[C@H](COC[C@H](O)CN2C(=O)Nc2ccc(F)cc2)O1)NCCCN1CCOCC1`, the relative growth was inactive: 0.942. With `NCc1ccc(S(=O)(=O)O)cc1`, the relative growth was inactive: 0.993. As to `C[C@@H]1CN([C@H](C)CO)C(=O)c2cccc(NC(=O)CCCCCC(=O)Nc3ccccc3N)c2O[C@@H]1CN(C)Cc1ccccc1`, the relative growth is inactive: 1.

`Cc1ccc(S(=O)(=O)N(C)C[C@@H]2Oc3c(NC(=O)c4cc(C)nn4C)cccc3C(=O)N([C@H](C)CO)C[C@H]2C)cc1`: the relative growth is inactive: 1. Take `C[C@@H]1CCCCO[C@H](CN(C)C(=O)Cc2ccccc2)[C@@H](C)CN([C@H](C)CO)C(=O)c2cc(NC(=O)Nc3ccc4c(c3)OCO4)ccc2O1`: the relative growth is inactive: 1.03. On to `C[C@H](CO)N1C[C@H](C)[C@H](CN(C)Cc2ccc(C(F)(F)F)cc2)Oc2ccc(NC(=O)Nc3ccccc3)cc2C1=O`, for which the relative growth was inactive: 1.03. Take `CCc1nnc(SCC(=O)O)n1N`: the relative growth is inactive: 0.992. Regarding `CCO[C@H]1OC(C(=O)N2CCN(Cc3ccccc3)CC2)=C[C@@H](c2cn(C(C)=O)c3ccccc23)[C@@H]1CCCOC(=O)NCCCCCC(=O)NO`, the relative growth is inactive: 0.978. Take `O=C(C[C@H]1CC[C@H]2[C@@H](COC[C@@H](O)CN2C(=O)Nc2cccc(Cl)c2)O1)NCCCN1CCOCC1`: the relative growth was inactive: 0.877. Consider `CC(C)CC#Cc1ccc2c(c1)O[C@H](CN(C)C(=O)c1cccnc1)[C@H](C)CN([C@H](C)CO)S2(=O)=O`, for which the relative growth is inactive: 0.976. For the compound `COc1ccc(NC(=O)Nc2ccc3c(c2)C(=O)N([C@H](C)CO)C[C@@H](C)[C@H](CN(C)S(=O)(=O)c2ccc(F)cc2)OCCCC[C@H](C)O3)cc1`, the relative growth is inactive: 1.04.

Consider `NCC[C@@H]1CC[C@H](NC(=O)NC2CCCCC2)[C@H](CO)O1`, for which the relative growth was inactive: 0.996.

For the compound `C[C@@H]1CN([C@@H](C)CO)C(=O)c2ccccc2-c2ccccc2CO[C@@H]1CN(C)Cc1ccc(Oc2ccccc2)cc1`, the relative growth is inactive: 1.02. On to `O=C1c2ccccc2[C@](Cc2ccccc2I)(C(=O)NCc2ccccc2)[C@H](c2ccc(CO)cc2)N1C1CCCCC1`, for which the relative growth is inactive: 1.01.

For the compound `CC(=O)n1cc([C@@H]2C=C(C(=O)N3CCOCC3)O[C@H](OCCCCOC(=O)NCCCCCC(=O)NO)C2)c2ccccc21`, the relative growth is inactive: 0.981. Regarding `Cc1ncc(CO)c(/C=N/O)c1O`, the relative growth is inactive: 1. For `C[C@@H]1CN([C@H](C)CO)C(=O)Cc2cc(NC(=O)Nc3ccc4c(c3)OCO4)ccc2O[C@@H]1CN(C)C(=O)Nc1ccc(C(F)(F)F)cc1`, the relative growth is inactive: 1.04.

Take `COCCOC(=O)N1C(=O)[C@@]2(c3cc(C#CCC(C(=O)OC)C(=O)OC)ccc31)[C@H](C(=O)N1CCCCCCC1)[C@H]1C(=O)O[C@H](c3ccccc3)[C@H](c3ccccc3)N1[C@@H]2c1ccc(OCCO)cc1`: the relative growth is inactive: 1.03. Then `O=C(c1ccc(S(=O)(=O)N2CCOCC2)o1)N1CCC(O)CC1`, with inactive: 1; and `O=C(NCc1ccccc1)C1=C[C@H](c2ccc3c(c2)Cc2ccccc2-3)C[C@H](OCc2ccc(CO)cc2)O1`, with inactive: 1.01. In the case of `CS(=O)(=O)CS(=O)(=O)C1=C(N2CCOCC2)C2CCN1CC2`, the relative growth was inactive: 1. As for `CO[C@H]1CN(C)C(=O)c2cc(NS(=O)(=O)CC(F)(F)F)ccc2OC[C@H](C)N(Cc2cccnc2)C[C@H]1C`, the relative growth is inactive: 0.999. Then `C[C@H]1CN([C@@H](C)CO)C(=O)c2cc(NC(=O)c3ccncc3)ccc2O[C@@H]1CN(C)Cc1ccc(Oc2ccccc2)cc1`, with inactive: 0.925; and `C[C@@H]1CN([C@H](C)CO)C(=O)Cc2cc(NC(=O)C3CC3)ccc2O[C@H]1CN(C)S(=O)(=O)c1ccc(F)cc1`, with inactive: 0.99; and `Cc1ccc(S(=O)(=O)Nc2ccc3c(c2)C(=O)N([C@H](C)CO)C[C@@H](C)[C@H](CN(C)C(=O)Cc2ccccc2)OCCCC[C@@H](C)O3)cc1`, with inactive: 1.01. Then `O=C1CCC(C(=O)O)CC1`, with inactive: 0.983; and `COc1ccc(NC(=O)N(C)C[C@H]2Oc3ccc(NS(=O)(=O)c4cn(C)cn4)cc3C(=O)N([C@H](C)CO)C[C@H]2C)cc1`, with inactive: 0.984; and `C[C@H]1CN([C@@H](C)CO)C(=O)c2cccc(NC(=O)Nc3ccc4c(c3)OCO4)c2O[C@@H]1CN(C)Cc1ccc(Oc2ccccc2)cc1`, with inactive: 1.01.

In the case of `Cc1noc(C)c1S(=O)(=O)N(C)C[C@H]1Oc2ccc(NC(=O)Cc3cn(C)c4ccccc34)cc2CC(=O)N([C@@H](C)CO)C[C@@H]1C`, the relative growth was inactive: 0.896. Turning to `C[C@@H]1CCCCO[C@H](CN(C)CC2CC2)[C@H](C)CN([C@H](C)CO)C(=O)c2cc(NC(=O)Nc3ccc(C(F)(F)F)cc3)ccc2O1`, the relative growth was inactive: 1.01. Then `N=C(N=C(N)N)Nc1cc(-c2cccs2)n[nH]1`, with inactive: 0.931; and `Cn1c(=O)c2c(nc(N3CCOCC3)n2CCCN)n(C)c1=O`, with inactive: 0.983. Take `O=C(Cc1ccncc1)NCC[C@@H]1CC[C@H](NC(=O)C2CCOCC2)[C@H](CO)O1`: the relative growth was inactive: 1.03. With `CCCN(C)C[C@H]1Oc2cc(C#Cc3cccc(OC)c3)ccc2S(=O)(=O)N([C@@H](C)CO)C[C@H]1C`, the relative growth was inactive: 1.01.

For the compound `CN1C(=O)c2cc(NC(=O)c3cnccn3)ccc2OC[C@H]2O[C@@H](CC(=O)Nc3cc(F)ccc3F)CC[C@@H]21`, the relative growth is inactive: 1. Take `Cc1ccc(S(=O)(=O)Nc2ccc3c(c2)C(=O)N([C@H](C)CO)C[C@H](C)[C@@H](CN(C)S(=O)(=O)c2ccc(F)cc2)OCCCC[C@H](C)O3)cc1`: the relative growth is inactive: 1.03. Consider `COc1ccccc1C(=O)Nc1ccc2c(c1)C(=O)N(C)[C@@H]1CC[C@@H](CC(=O)NCc3ccc(Cl)c(Cl)c3)O[C@H]1CO2`, for which the relative growth is inactive: 1.08.

In the case of `Cc1noc(C)c1S(=O)(=O)Nc1cccc2c1O[C@H](CN(C)C(=O)Nc1ccccc1)[C@H](C)CN([C@H](C)CO)C2=O`, the relative growth was inactive: 1.02. Then `C[C@H]1CN([C@@H](C)CO)C(=O)c2cc(C#Cc3ccccc3F)cnc2O[C@H]1CN(C)C(=O)c1ccc2c(c1)OCO2`, with inactive: 0.991; and `CCCCC[C@H](O)/C=C/[C@H]1[C@H](O)CC(=O)[C@@H]1C/C=C\CCCC(=O)O`, with inactive: 0.991. Regarding `C=CC[C@@H](CC(=O)N[C@@H](CO)Cc1ccccc1)C(=O)NCCOC(=O)[C@@H](CC=C)CC(=O)OC(C)(C)C`, the relative growth was inactive: 1.01.

`CO[C@@H]1CN(C)C(=O)c2cc(NC(=O)C3CCOCC3)ccc2OC[C@@H](C)N(Cc2cccnc2)C[C@@H]1C`: the relative growth is inactive: 0.991. For the compound `CN(CCOP(=O)(O)O)C(=N)N`, the relative growth was inactive: 1.01. Consider `C/C=C/c1ccc2c(c1)O[C@@H](CN(C)C(=O)c1ccc3c(c1)OCO3)[C@@H](C)CN([C@@H](C)CO)S2(=O)=O`, for which the relative growth was inactive: 0.985. For the compound `C[C@@H]1COC(=O)[C@@H](NC(=O)OCC2c3ccccc3-c3ccccc32)CC=CC[C@@H](CC(=O)NCCO)C(=O)N1`, the relative growth is inactive: 1.04. As to `COC(=O)Cc1c(C)[nH]c2ncnn2c1=O`, the relative growth is inactive: 1. Turning to `COc1cc2c(cc1OC)CN(C(=O)[C@@H]1[C@H]3C(=O)O[C@H](c4ccccc4)[C@H](c4ccccc4)N3[C@H](c3ccc(OCCO)cc3)[C@@]13C(=O)Nc1ccc(C#CC4=CCCCC4)cc13)CC2`, the relative growth is inactive: 1.07.
